Experimental data taken from US20240417727A1, “ANTAGONIST OF THE MIRNA-106B-5P TO TREAT OR PREVENT THE CARDIOTOXICITY THAT IS DEVELOPED IN ONCOLOGIC PATIENTS AFTER RECEIVING ANTHRACYCLINE-BASED CHEMOTHERAPY” (UNIVERSIDAD DE MURCIA, priority 2021, published 2024).

System: C57BL6 mice
Conditions: for ejection fraction (EF) / fractional shorting (FS): echocardiography, 8 weeks post-Dox
[1] = AM106 20 mg/kg i.v., Dox 5 mg/kg i.p. weekly x5
[2] = plasma, AM106 20 mg/kg i.v., Dox 5 mg/kg i.p.
[3] = pretreatment with AM106, Dox cumulative 25 mg/kg

Compound | body mass (Dox treatment) | 3/7 caspase activity (LV myocardium) | cellular apoptosis by TUNEL staining (LV myocardium) | cardiac atrophy and fibrosis (cumulative 25 mg/kg dose) | ejection fraction (EF) | fractional shorting (FS) | sST2 plasma levels (AM106 20 mg/kg i.v., Dox 5 mg/kg i.p.) | FOG2 mRNA levels [1] | PR55α mRNA levels [1] | sST2 expression in LV myocardium (Dox) | mortality (Dox treatment) | YY1-HDAC4 interaction (LV myocardium, co-immunoprecipitation) | Dox-induced HDAC4 increase (LV, immunohistochemistry) | Dox-induced YY1 increase (LV, immunohistochemistry) | LDH activity [2] | cardiac troponin T (cTnT) levels [2] | cardiac fibrosis [3] | reduction in cardiomyocyte size [3] | reduction in heart weight [3]
COc1cccc2c1C(=O)c1c(O)c3c(c(O)c1C2=O)C[C@@](O)(C(=O)CO)C[C@@H]3O[C@H]1C[C@H](N)[C@H](O)[C@H](C)O1 [Dox, doxorubicin, reference compound] | whole-body cachexia | activation of 3/7 caspase activity | induced cellular apoptosis | significant cardiac atrophy and fibrosis | significant decline | significant decline |  |  |  |  |  |  |  |  |  |  |  |  | 
AM106: miRCURY LNA microRNA Inhibitor against miR-106b-5p, 5′-CACTGTCAGCACTTT-3′ (SEQ ID NO 3), sequence shown without LNA pattern (antisense CACUGUCAGCACUUU; LNA-modified inhibitor, LNA pattern not given here) | inhibited the loss of body mass | prevented | prevented |  | prevented | prevented | decreased | significant up-regulation | significant up-regulation | decreased sST2 expression | prevent the mortality associated with Dox treatment | prevent the effect of Dox on YY1-HDAC4 interaction | no effect | no effect | decreased | decreased | completely inhibited | completely inhibited | completely inhibited
